# Assay results: the supplement of paper PMC4604168 (melanoma cell lines)
# The list shows a part of the results. Most values come without repeats; read them as rough.
# Columns and labels:
# Test in all cases: cell count relative to DMSO control; melanoma cells; higher = more viable cells
# Conditions in all cases: library dose: low library concentration; 72 h
# WM115 = system: WM115
# WM1716 = system: WM1716
# WM1745 = system: WM1745
# WM3526 = system: WM3526
# WM3619 = system: WM3619
# WM451Lu = system: WM451Lu
# 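Further: cell number obtained by counting DAPI-stained nuclei in high-throughput microscope images with image analysis software, screen run in 1,536-well plates.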
SMILES,cell count (WM115),cell count (WM1716),cell count (WM1745),cell count (WM3526),cell count (WM3619),cell count (WM451Lu)
"C[As](C)SC[C@H](NC(=O)CC[C@H](N)C(=O)O)C(=O)NCC(=O)O [Darinaparsin] + O=C(Oc1ccc([N+](=O)[O-])cc1)N1CCC(C(O)(c2ccc3c(c2)OCO3)c2ccc3c(c2)OCO3)CC1 [JZL184] (first compound 0.4 µM, partner dose 1 µM)",88.6%,94.6%,85.5%,81.4%,105%,90.4%
"N.N.[Cl][Pt][Cl] [cisplatin] + CCCCCCCCCCCC1=C(O)C(=O)C=C(O)C1=O [Embelin] (first compound 1.6 µM, partner dose 1.2 µM)",101%,97.9%,110%,94.2%,107%,115%
"N.N.[Cl][Pt][Cl] [cisplatin] + O=C(O)c1ccc(-c2c[nH]c3ncc(-c4ccccc4)cc23)cc1C1CCCC1 [GSK650394] (first compound 1.6 µM, partner dose 0.16 µM)",88.7%,121%,99.2%,62.1%,75%,87.5%
"C[C@]12O[C@H](C[C@]1(O)CO)n1c3ccccc3c3c4c(c5c6ccccc6n2c5c31)CNC4=O [Lestaurtinib] + CS(=O)(=O)CCNCc1ccc(-c2ccc3ncnc(Nc4ccc(OCc5cccc(F)c5)c(Cl)c4)c3c2)o1 [lapatinib] (first compound 0.004 µM, partner dose 0.8 µM)",99.3%,108%,108%,95.5%,105%,107%
"N.N.[Cl][Pt][Cl] [cisplatin] + C/C(O)=C(\C#N)C(=O)Nc1cc(Br)ccc1Br [LFM-A13] (first compound 1.6 µM, partner dose 2 µM)",99.1%,94.3%,95%,81.6%,82.8%,99.8%
"C[As](C)SC[C@H](NC(=O)CC[C@H](N)C(=O)O)C(=O)NCC(=O)O [Darinaparsin] + COc1cc2c(Oc3ccc4[nH]c(C)cc4c3F)ncnc2cc1OCCCN1CCCC1 [cediranib] (first compound 0.4 µM, partner dose 0.4 µM)",102%,116%,93.6%,110%,117%,97.9%
"C[As](C)SC[C@H](NC(=O)CC[C@H](N)C(=O)O)C(=O)NCC(=O)O [Darinaparsin] + C=CCn1c(=O)c2cnc(Nc3ccc(N4CCN(C)CC4)cc3)nc2n1-c1cccc(C(C)(C)O)n1 [MK1775] (first compound 0.4 µM, partner dose 0.02 µM)",70.8%,72.4%,85.9%,78.5%,50.3%,70.8%
"Cn1cc(C2=C(c3cn(C4CCN(Cc5ccccn5)CC4)c4ccccc34)C(=O)NC2=O)c2ccccc21 [Enzastaurin] + CC(C)(C)c1cnc(CSc2cnc(NC(=O)C3CCNCC3)s2)o1 [SNS-032] (first compound 0.8 µM, partner dose 0.01 µM)",102%,75.8%,81%,91.2%,120%,71%
"N.N.[Cl][Pt][Cl] [cisplatin] + O=c1cc(-c2cccc3c2Sc2ccccc2S3)oc(N2CCOCC2)c1 [KU55933] (first compound 1.6 µM, partner dose 1 µM)",89.2%,114%,109%,102%,103%,97.5%
"Cn1cc(C2=C(c3cn(C4CCN(Cc5ccccn5)CC4)c4ccccc34)C(=O)NC2=O)c2ccccc21 [Enzastaurin] + NC1(c2ccc(-c3nc4ccn5c(=O)[nH]nc5c4cc3-c3ccccc3)cc2)CCC1 [MK2206] (first compound 0.8 µM, partner dose 0.4 µM)",98.6%,101%,81.2%,94.5%,78.2%,120%
"C[As](C)SC[C@H](NC(=O)CC[C@H](N)C(=O)O)C(=O)NCC(=O)O [Darinaparsin] + Cn1cc(/C=C2\C(=O)Nc3cccnc32)c2ccccc21 [GW441756] (first compound 0.4 µM, partner dose 0.4 µM)",86.8%,116%,95.6%,81.8%,121%,110%
"C[C@]12O[C@H](C[C@]1(O)CO)n1c3ccccc3c3c4c(c5c6ccccc6n2c5c31)CNC4=O [Lestaurtinib] + Cc1cc([N+](=O)[O-])ccc1NS(=O)(=O)c1cc(Cl)ccc1Cl [FH535] (first compound 0.004 µM, partner dose 1 µM)",87.5%,101%,76%,88.9%,106%,100%
"Cn1cc(C2=C(c3cn(C4CCN(Cc5ccccn5)CC4)c4ccccc34)C(=O)NC2=O)c2ccccc21 [Enzastaurin] + Cn1sc(=O)n(Cc2ccccc2)c1=O [TDZD-8] (first compound 0.8 µM, partner dose 0.4 µM)",112%,118%,102%,121%,116%,83.2%
"Cn1cc(C2=C(c3cn(C4CCN(Cc5ccccn5)CC4)c4ccccc34)C(=O)NC2=O)c2ccccc21 [Enzastaurin] + CN1CCN(c2ccc3nc(-c4c(N)c5c(F)cccc5[nH]c4=O)[nH]c3c2)CC1 [Dovitinib] (first compound 0.8 µM, partner dose 0.1 µM)",115%,103%,87.6%,119%,114%,102%
"C[C@]12O[C@H](C[C@]1(O)CO)n1c3ccccc3c3c4c(c5c6ccccc6n2c5c31)CNC4=O [Lestaurtinib] + CO[C@H]1C[C@@H]2CC[C@@H](C)[C@@](O)(O2)C(=O)C(=O)N2CCCC[C@H]2C(=O)O[C@H]([C@H](C)C[C@@H]2CC[C@@H](OCCO)[C@H](OC)C2)CC(=O)[C@H](C)/C=C(\C)[C@@H](O)[C@@H](OC)C(=O)[C@H](C)C[C@H](C)/C=C/C=C/C=C/1C [everolimus] (first compound 0.004 µM, partner dose 0.02 µM)",88.2%,83.7%,89.7%,51.5%,92.3%,90.3%
"C[As](C)SC[C@H](NC(=O)CC[C@H](N)C(=O)O)C(=O)NCC(=O)O [Darinaparsin] + NC(=O)Nc1cc(-c2cccc(F)c2)sc1C(=O)N[C@H]1CCCNC1 [AZD7762] (first compound 0.4 µM, partner dose 0.02 µM)",89.4%,105%,95.8%,92%,89.2%,102%
"C[C@]12O[C@H](C[C@]1(O)CO)n1c3ccccc3c3c4c(c5c6ccccc6n2c5c31)CNC4=O [Lestaurtinib] + NCC(=O)Nc1ccc(-n2nc(C(F)(F)F)cc2-c2ccc3c(ccc4ccccc43)c2)cc1 [OSU03012] (first compound 0.004 µM, partner dose 1 µM)",101%,104%,95.3%,57.8%,113%,70.8%
"N.N.[Cl][Pt][Cl] [cisplatin] + Cc1cc(SCc2sc(-c3ccc(C(F)(F)F)c(F)c3)nc2C)ccc1OCC(=O)O [GW0742] (first compound 1.6 µM, partner dose 2 µM)",87.4%,89.5%,107%,104%,84.9%,97.2%
"N.N.[Cl][Pt][Cl] [cisplatin] + NC(=O)Nc1cc(-c2cccc(F)c2)sc1C(=O)N[C@H]1CCCNC1 [AZD7762] (first compound 1.6 µM, partner dose 0.02 µM)",90.3%,87.6%,99.3%,91.2%,93%,84.2%
"C[C@]12O[C@H](C[C@]1(O)CO)n1c3ccccc3c3c4c(c5c6ccccc6n2c5c31)CNC4=O [Lestaurtinib] + CS(=O)(=O)c1ccc(C(=O)Nc2ccc(Cl)c(-c3ccccn3)c2)c(Cl)c1 [vismodegib] (first compound 0.004 µM, partner dose 1 µM)",91.8%,96.4%,91.4%,70.8%,106%,101%
"Cn1cc(C2=C(c3cn(C4CCN(Cc5ccccn5)CC4)c4ccccc34)C(=O)NC2=O)c2ccccc21 [Enzastaurin] + O=C(O)c1ccc2c(c1)nc(Nc1cccc(Cl)c1)c1ccncc12 [CX4945] (first compound 0.8 µM, partner dose 0.4 µM)",121%,98.4%,96.7%,106%,96.9%,109%
"Cn1cc(C2=C(c3cn(C4CCN(Cc5ccccn5)CC4)c4ccccc34)C(=O)NC2=O)c2ccccc21 [Enzastaurin] + C#Cc1cccc(Nc2ncnc3cc(OCCOC)c(OCCOC)cc23)c1 [erlotinib] (first compound 0.8 µM, partner dose 0.8 µM)",96.6%,106%,76.5%,92.9%,109%,107%
"C[As](C)SC[C@H](NC(=O)CC[C@H](N)C(=O)O)C(=O)NCC(=O)O [Darinaparsin] + NCC(=O)Nc1ccc(-n2nc(C(F)(F)F)cc2-c2ccc3c(ccc4ccccc43)c2)cc1 [OSU03012] (first compound 0.4 µM, partner dose 1 µM)",87.1%,95.8%,92.9%,51.8%,103%,76.5%
"Cn1cc(C2=C(c3cn(C4CCN(Cc5ccccn5)CC4)c4ccccc34)C(=O)NC2=O)c2ccccc21 [Enzastaurin] + O=C(CCCCCCC(=O)Nc1ccccc1)NO [vorinostat] (first compound 0.8 µM, partner dose 0.08 µM)",109%,121%,94.4%,122%,54.9%,119%
"N.N.[Cl][Pt][Cl] [cisplatin] + CN(NC(=O)CC(=O)NN(C)C(=S)c1ccccc1)C(=S)c1ccccc1 [STA4783] (first compound 1.6 µM, partner dose 0.006 µM)",91%,125%,115%,83.5%,84.7%,108%
